In PubChem BioAssay AID686970 (National Center for Advancing Translational Sciences (NCATS), 2013):
About 6,000 (1.7%) of roughly 360,000 compounds were called active. Inconclusive means that the source gave no clear call. Such entries were picked first, then a sample of the others. Calls come from the whole dose curve; as a rule, active = well fitted cell-killing curve with a large enough effect; inconclusive = small, poorly fitted or top-dose-only effect, or effect the other way; inactive = flat fitted curve, though single readings scatter. No potency is given beside an inconclusive call; the fits are too rough.

Assay: qHTS for induction of synthetic lethality in tumor cells producing 2HG: qHTS for the HT-1080-NT fibrosarcoma cell line;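 note: NT is the 2HG producing partner of a matched IDH1 knockdown line; nearly all actives have a fitted effect of over 55% in size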
Details: HT-1080-NT fibrosarcoma viability, CellTiter-Glo ATP luminescence, 48 h; series mostly up to 46.1 µM
Summary of the method: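 Toxicity toward the 2HG-producing NT line was scored as %Activity, normalised to DMSO and no-cell wells, from CellTiter-Glo luminescence after 48 hours' treatment.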
Potency is the fitted concentration of half-maximal effect; tags give direction and shape of the fitted curve.

Structure (SMILES)	Potency
N#CC1c2ccccc2C=CN1C(=O)N(c1ccccc1)c1ccccc1 (stereo not given)	inconclusive [cytotoxic, single point]
COc1ccc(S(=O)(=O)N2CCCCCC2)cc1NC(=O)Cc1ccc(OC)c(OC)c1	inactive
CCc1c(C(=O)NC2CCCc3ccccc32)[nH]c(C)c1C(C)=O (stereo not given)	inconclusive [cytotoxic, partial curve]
CC(C)(C)NC(=O)c1cc([N+](=O)[O-])ccc1N1CCCCC1	inactive
O=C(C(=Cc1ccc(F)cc1)C(=O)c1ccccc1)c1ccccc1	inconclusive [cytotoxic, single point]
CC(=O)Nc1nc2ccccc2n1Cc1ccccc1C	inconclusive [cytotoxic, partial curve]
COc1ccc(-c2nc(-c3ccc(O)cc3O)cs2)cc1OC	inconclusive [cytotoxic, single point]
Cc1nc2cc(C(F)(F)F)ccc2n1CCNc1nc(-c2ccc([N+](=O)[O-])c(Cl)c2)cs1	inconclusive [cytotoxic, single point]
CS/C(=N\S(=O)(=O)c1cccs1)Nc1ccc(Cl)cc1	inactive
Cc1nc2sc(C(c3ccco3)N3CCC(Cc4ccccc4)CC3)c(O)n2n1 (stereo not given)	inactive
COCCCNC(=O)c1c[nH]c2ccc(S(=O)(=O)N3CCc4ccccc43)cc2c1=O	inconclusive [cytotoxic, partial curve]
COc1ccc(/C=C/C(=O)c2ccc([N+](=O)[O-])o2)cc1	inconclusive [cytotoxic, single point]
Cc1nc2ccccc2nc1N1CCCC1	inactive
NC(=O)c1cccc(-c2ccnc3c2CC(C(=O)NCCC(F)(F)F)O3)c1 (stereo not given)	inconclusive [rising, full curve, poor fit]
Cc1cc(/C=C2/SC(=S)N(c3cccc(C(F)(F)F)c3)C2=O)c(C)n1-c1cccnc1	inconclusive [cytotoxic, full curve, poor fit]
CN(C)c1ncnc2c1nnn2C1OC(CO)C(O)C1O (stereo not given)	active: 0.58 µM
Nc1c(C(=O)Nc2nc3ccccc3s2)sc2nc(-c3cccs3)ccc12	inconclusive [cytotoxic, single point]
CCC(c1nnnn1-c1c(C)cccc1C)N1CCN(c2ccc(C(F)(F)F)cc2[N+](=O)[O-])CC1 (stereo not given)	active: 29.1 µM
O=c1c2ccccc2nc2c3ccccc3c3nncn3n12	inactive
Cc1ccc(S(=O)(=O)Cc2ccc(C(=O)N3CCN(c4cccc(C)c4C)CC3)o2)cc1	inconclusive [cytotoxic, partial curve, poor fit]
